According to PubChem BioAssay AID624296 (National Center for Advancing Translational Sciences (NCATS), 2012):
Hit rate of the full screen: of about 350,000 compounds, about 9,900 (2.8%) were called active. This list was built around the results that the source calls inconclusive (neither active nor inactive); the mix of calls is not that of the screen. The call rests on the fitted dose curve; in most records, active means well fitted activation curve with a large enough effect; inconclusive means small, poorly fitted or top-dose-only effect; inactive means no such curve, though single readings can be large or run the other way. No potency is given beside an inconclusive call; the fits are too rough.

assay: A quantitative high throughput screen for small molecules that induce DNA re-replication in MCF 10a normal breast cells.; further: nearly all actives have a fitted effect of over 50% in size; on activity, positive = re-replication: % of control where 0% means no effect; conditions: MCF 10A DNA re-replication, Hoechst nuclear intensity, 48 h; activity, positive = re-replication: at 46.1 µM (top of the series)
Potency means the concentration at half of the fitted maximal effect; tags describe the fitted curve by direction and shape.

| SMILES | Potency | activity, positive = re-replication |
| --- | --- | --- |
| Cc1cc(C)c(C(=O)N2CCCC(N3CCN(c4cccc(C(F)(F)F)c4)CC3)C2)o1 (stereo not drawn) | inconclusive [activator, single point] |  |
| COc1ccc2cc3c(N)nn(C(=O)c4ccccc4[N+](=O)[O-])c3nc2c1 | inconclusive [activator, single point] |  |
| Cc1ccc2c(c1)c1c(n2CC(O)Cn2c(C)nc3ccccc32)/C(=N\O)CCC1 (stereo not drawn) | inconclusive [activator, partial curve, poor fit] |  |
| CCOC(=O)c1sc2ncn(CC(=O)Nc3cc(C)on3)c(=O)c2c1C |  | inactive: 4.19% |
| CCn1c2ccccc2c2cc(/C=N/NC(=O)c3cccc(C)c3)ccc21 | active: 5.8 µM |  |
| COc1ccc(C(=O)N/C(=C/c2ccc(Cl)cc2)C(=O)NCc2ccncc2)cc1 | inconclusive [activator, single point] |  |
| Cc1ccccc1C(=O)N1CCC(C(=O)Nc2cccc(S(=O)(=O)N3CCCCC3)c2)CC1 | inconclusive [activator, partial curve, poor fit] |  |
| Cc1nn(-c2ccccc2)c(C)c1NC(=O)COC(=O)c1ccc(O)cc1O | inconclusive [activator, single point] |  |
| COc1c(O)cc(O)c2c(=O)cc(-c3ccccc3)oc12 | active: 16.4 µM |  |
| Cc1cc(C)c(C(=O)c2ccc(C(=O)NC(C)(C)C)cc2)c(C)c1 |  | inactive: -12.8% |
| Brc1ccc2ncnc(NCc3ccccc3)c2c1 | inconclusive [activator, partial curve, poor fit] |  |
| COc1cccc(CN(C)C(=O)c2cc(-c3ccc(F)cc3)nc3ccccc23)c1 | inconclusive [activator, single point] |  |
| O=C1CC(/C=C/c2ccncc2)=Nc2ccccc2N1 | inconclusive [activator, single point] |  |
| CC1CC(C)CN(C(=O)COC(=O)c2cc(S(=O)(=O)N3CCOCC3)ccc2F)C1 (stereo not drawn) | inconclusive [activator, single point] |  |
| Cc1ccc(NC(=S)N(Cc2cccs2)Cc2cc3cccc(C)c3[nH]c2=O)cc1 | inconclusive [activator, partial curve, poor fit] |  |
| O=C1CCCN1CCCNc1ncccc1[N+](=O)[O-] |  | inactive: 2.98% |
| CCCCCN=C(C)c1c(O)c2ccccc2oc1=O | inconclusive [activator, partial curve, poor fit] |  |
| Cc1cc(C)n2cc(CSc3nncn3C)nc2n1 | inconclusive [activator, partial curve, poor fit] |  |
| C/C(N)=C(/C#N)C(=O)CSc1nc2scc(-c3ccccc3)c2c(=O)n1C |  | inactive: -2.67% |
| CCOc1ccc(NC(=O)COC(=O)C2CCC(=O)N2)c([N+](=O)[O-])c1 (stereo not drawn) | inconclusive [activator, partial curve, poor fit] |  |
| Cc1nn(Cc2ccccc2)c2ncccc12 |  | inactive: 5.37% |
| CCOc1ccc2[nH]cc(S(=O)(=O)c3ccc(F)cc3)c(=O)c2c1 |  | inactive: -0.195% |

| SMILES | Potency | activity, positive = re-replication |
| --- | --- | --- |
| CC(=O)Oc1c(C)c2c3c(c1OC(C)=O)[C@@H](C)CC[C@@H]3[C@@H](C)C[C@H]2C=C(C)C | active: 25.9 µM |  |
| O=C(Nc1ccn(CCCNCc2ccccn2)c(=O)n1)OCc1ccccc1 |  | inactive: -8.41% |
| CCn1cc(C(=O)Nc2ccc(NC(=O)c3ccco3)cc2)c(=O)c2ccc(C)nc21 | inconclusive [activator, single point] |  |
| Cc1ccccc1N1CCN(S(=O)(=O)c2nnc(NC(=O)c3ccco3)s2)CC1 | inconclusive [activator, single point] |  |
| Cc1ccc(CN2CCCN(C)CC2)c(C)c1 | active: 20.6 µM |  |
| O=C(NCc1ccco1)c1sc(=S)n2c1[nH]c(=O)c1ccccc12 | inconclusive [activator, single point] |  |
| COc1ccc(CN(C(=O)CN2C(=O)c3ccccc3S2(=O)=O)C(C(=O)NCC2CCCO2)c2ccco2)cc1 (stereo not drawn) |  | inactive: 9.55% |
| CCOC(=O)C1CCN(C(=O)c2cc(OCC)c(OCC)c(OCC)c2)CC1 | inconclusive [activator, partial curve, poor fit] |  |
| Cn1cc(S(=O)(=O)c2ccccc2)c(=O)c2cc(Cl)ccc21 |  | inactive: 12.8% |
| Cc1ccccc1OCCNC(=O)CSc1ccc(C(F)(F)F)cc1[N+](=O)[O-] | inconclusive [activator, single point] |  |
| Cc1cc(NC(=O)COC(=O)C(Nc2ccc(C(F)(F)F)cc2Cl)C(C)C)no1 (stereo not drawn) | active: 20.6 µM |  |
| O=C(CSc1nnc(-c2ccco2)n1-c1ccccc1)NCc1ccc2c(c1)OCO2 | inconclusive [activator, single point] |  |
| Cc1cccc(N2C(=O)c3cccc4c(N)ccc(c34)C2=O)c1 | inconclusive [activator, single point] |  |
| CCOc1ccc(N(C)S(=O)(=O)c2cc(-c3cc(C)no3)ccc2CC)cc1 | inconclusive [activator, partial curve, poor fit] |  |
| CCCCN(CCCC)C(=O)c1sc2nc(N3CCOCC3)c3c(c2c1N)CCCC3 | inconclusive [activator, single point] |  |
| C[C@@H](NC(=O)c1nc[nH]c1C(=O)N[C@@H](Cc1ccccc1)C(=O)OC(C)(C)C)c1ccccc1 | inconclusive [activator, single point] |  |
| O=C(CSc1ncnc2nc[nH]c12)N1CCOCC1 | active: 8.2 µM |  |
| CNC(CC(=O)c1ccc([N+](=O)[O-])cc1)C(Cl)(Cl)Cl (stereo not drawn) | inconclusive [activator, partial curve, poor fit] |  |
| O=[N+]([O-])c1ccc(N2CCN(Cc3cccc([N+](=O)[O-])c3)CC2)cc1 |  | inactive: -3.48% |
| CC(C)/C=C/CN1CCN(CCCc2ccccc2)C(CCO)C1 (stereo not drawn) |  | inactive: -0.934% |
| O=C(/C=C/Nc1ccc(Oc2ccccc2Cl)cc1)c1ccco1 | inconclusive [activator, single point] |  |
